# Whole data set: some 33,000 sequences, median “E-score (-0.5 to 0.5)” near -0.054, cut for the highest 2% near 0.35. This is one part of the list.
# Target: T1, Stb5 (UniProt P38699)
# T1 sequence: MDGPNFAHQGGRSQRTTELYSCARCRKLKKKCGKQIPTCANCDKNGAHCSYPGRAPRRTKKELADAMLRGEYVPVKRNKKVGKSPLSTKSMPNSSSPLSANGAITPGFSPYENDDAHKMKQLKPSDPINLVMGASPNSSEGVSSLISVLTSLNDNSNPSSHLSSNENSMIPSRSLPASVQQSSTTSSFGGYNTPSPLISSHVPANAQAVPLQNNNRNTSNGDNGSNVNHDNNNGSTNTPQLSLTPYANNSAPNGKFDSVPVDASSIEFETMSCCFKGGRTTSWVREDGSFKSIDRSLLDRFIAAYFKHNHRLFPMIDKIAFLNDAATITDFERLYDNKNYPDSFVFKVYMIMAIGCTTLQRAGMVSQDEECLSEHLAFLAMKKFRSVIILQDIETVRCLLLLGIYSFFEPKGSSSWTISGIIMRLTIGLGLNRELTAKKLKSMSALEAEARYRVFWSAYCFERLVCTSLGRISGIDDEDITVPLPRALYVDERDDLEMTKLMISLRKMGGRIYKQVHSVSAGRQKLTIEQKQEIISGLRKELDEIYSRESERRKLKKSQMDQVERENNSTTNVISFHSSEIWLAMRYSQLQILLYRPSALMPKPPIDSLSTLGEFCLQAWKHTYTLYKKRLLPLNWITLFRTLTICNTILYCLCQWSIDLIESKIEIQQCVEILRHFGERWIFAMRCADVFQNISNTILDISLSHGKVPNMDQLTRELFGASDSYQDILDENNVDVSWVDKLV
# Experiment: PBM E-score (8-mer binding enrichment) (E-score (-0.5 to 0.5)); higher = stronger / more preferred TF binding; most listed sequences are background and not binding sites
# Details: protein concentration: 200 nM; construct: GST-full length
# Experimental: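 Universal 'all 10-mer' protein binding microarrays (Agilent AMADID 015681) probed with GST-tagged S. cerevisiae TFs (full-length or DBD) made by in vitro transcription/translation (PURExpress), about 100-200 nM. Bound TF was detected with fluorescent anti-GST. Each ungapped 8-mer (which stands for itself and its reverse complement) is scored by the PBM enrichment score (E-score), a modified Wilcoxon-Mann-Whitney statistic from -0.5 to +0.5, computed with the Universal PBM Analysis Suite. Scale: above 0.35 generally sequence-specific binding.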
row,Sequence,PBM E-score
1,AACGAGGT,-0.0464
2,AACACCAG,0.011
3,CCGAGCAG,0.05
4,ATTAACCA,-0.0124
5,AACTGGTA,-0.077
6,TTTCAAAA,-0.0616
7,TAGGGGGA,-0.0977
8,GTTCCGAA,0.112
9,AGTACACT,-0.275
10,TCAGCAGA,-0.329
11,CTATATTC,-0.0643
12,CTAATGGA,-0.00769
13,ACGAGGCT,-0.0356
14,CCCCGATC,0.374
15,GGGCATGA,-0.083
16,CACCGCCG,0.405
17,CAATATGA,-0.108
18,ATACCCTA,-0.222
19,CGTTGCAA,-0.109
20,AATCTCTA,-0.302
21,GCTAAGAC,0.1
22,CTGTATCC,-0.00766
23,CCGTTGGC,0.212
24,ATAAACGC,0.121
25,CAAGCTCG,-0.0302

row,Sequence,PBM E-score
1,GTAGCCCA,-0.126
2,GCAGGGGA,-0.168
3,CGGAACGC,0.0718
4,AGCCTGGC,-0.0727
5,GCTATAGA,-0.0336
6,CGGACCTC,0.261
7,CCGGAGTC,0.279
8,CGCTTGGC,0.0377
9,CGAGACTA,-0.0587
10,AGTTTAAC,0.066
11,GATGCGGC,0.0604
12,AGTAGACC,-0.104
13,CTGCCTGC,-0.0567
14,CACCCCTA,-0.0642
15,GGGGCCAA,-0.0242
16,AGAGCTGG,-0.0753
17,GGAGCCCA,-0.263
18,GACTGTAA,-0.0228
19,GCCTTTGA,-0.169
20,ACTTAGGA,-0.225
21,GTAGTTAA,0.0894
22,AGCTCCGA,0.405
23,CCGCTAAG,0.219
24,CGGGCCCG,0.284
25,AGTAGATG,-0.164

row,Sequence,PBM E-score
1,CAGGCCAC,-0.187
2,CAGACGCG,-0.0888
3,GGGAGTAA,0.244
4,GTGACACA,0.104
5,AGGGGTAC,-0.177
6,CTATTCAA,-0.201
7,ACCGGGAA,0.261
8,AGCACGCG,-0.0899
9,ACTCATTG,-0.149
10,AGCTTGGC,-0.123
11,CTAGGGCC,0.0792
12,CCGATCAC,0.277
13,TAAACCGA,0.047
14,CGTGGGGA,-0.119
15,AGGGCCAT,-0.213
16,AGCCCTGC,-0.106
17,GTTCGTCA,-0.057
18,AACGGCTT,0.106
19,CTCATGTC,-0.066
20,GCAGGTGA,-0.157
21,AGCCATGG,-0.342
22,ATCGGTTC,0.192
23,AGCCTTCC,-0.237
24,TACGGCTA,-0.0852
25,CAGATGAG,-0.31

row,Sequence,PBM E-score
1,CGGAACTC,0.0793
2,CCAGCCGA,-0.223
3,ACTATCAA,0.025
4,ACAAGCGG,0.323
5,ATCATGAC,-0.131
6,ATGAGAAC,-0.109
7,ACCGTAAT,-0.0274
8,GATGTCAC,-0.0653
9,AATAGACC,0.0964
10,AAGATCTT,-0.205
11,CTCTGCAG,-0.158
12,CTTTTTAA,-0.102
13,CGGCGTCA,0.384
14,CAGGACTA,-0.141
15,CGATTTCA,-0.0652
16,CAACTATG,-0.144
17,CCCTTGAC,-0.238
18,CGTTTCCA,-0.0611
19,CTCGTTTA,-0.122
20,CCTAAAGA,0.119
21,ACGAACAC,0.0783
22,AGTGGCTA,-0.222
23,GAGATTCA,-0.152
24,TGGAAACA,-0.167
25,GTAATCGA,-0.0672

row,Sequence,PBM E-score
1,TATTATCA,0.121
2,CAATGACG,0.0473
3,AGGCCTTA,-0.0641
4,ATGTAAGC,-0.0109
5,TCTAATCA,0.031
6,CATGCTTA,-0.058
7,AAGCGTCT,-0.169
8,CTACGTAG,0.0194
9,GGATTTTA,0.203
10,AAATCCTG,-0.143
11,CACCGTAC,0.213
12,GAGATCGC,-0.0831
13,ACGGTGAG,0.141
14,CCATGGTA,-0.0299
15,CATCCTGA,-0.194
16,CCCCCAAA,-0.276
17,CCTCTGAG,-0.141
18,TACCGCAA,0.225
19,ACACGTTG,-0.333
20,ACATCCCC,0.111
21,ATGCCCCG,0.269
22,AGAAACGA,-0.253
23,AAGCGGAG,0.252
24,CTCCGTAA,0.269
25,CGCACAGA,-0.182

row,Sequence,PBM E-score
1,CGCGACAG,-0.0215
2,CCCATCTC,-0.175
3,TGAACTAA,-0.153
4,AATGTACC,0.00655
5,CGTTTCCC,0.12
6,CCTACTCA,0.0235
7,GGATAACC,0.101
8,CTCGAGAG,-0.254
9,AAGTTATC,-0.116
10,ACAGTGAA,-0.147
11,GACCTGAC,-0.335
12,AGAGGGCG,-0.0169
13,GTAGGAGA,-0.104
14,GGCATAAA,0.247
15,CCCAGTAG,-0.128
16,AAAGACAG,-0.00486
17,AGCCCCTA,-0.138
18,GAGGCCCA,-0.151
19,GACGACCC,-0.114
20,GCATCTAC,0.00096
21,CTGCTCTC,-0.121
22,CGCCGTAC,0.194
23,ACTCCGAG,0.202
24,GAGGGTAA,-0.00858
25,ACCTCGGG,0.173

row,Sequence,PBM E-score
1,ACTCAATG,-0.0318
2,ACGATTCT,-0.124
3,GTTTTATA,0.254
4,ACAAAACC,-0.0967
5,GACAGATC,0.0557
6,CATTTATC,-0.117
7,AACTCCCT,-0.0261
8,GCGATTGA,-0.174
9,CTACGCGC,0.0303
10,TAAGGCCA,0.0104
11,GCGGTGAC,0.358
12,TCTGCGAA,-0.223
13,CGAGCAAG,-0.149
14,ACAGTTCT,-0.169
15,ACGTGTCA,-0.25
16,CCACAAGC,-0.0807
17,CAACGCCG,0.318
18,ACTCAGTA,-0.113
19,GACTCAGC,-0.123
20,CTACTCAA,-0.135
21,AAGGCACC,0.153
22,CCGTGTAA,0.109
23,GCGGGGCA,0.249
24,CAGCTTTC,-0.0389
25,AACAGAAG,-0.144

row,Sequence,PBM E-score
1,GGTCGCAA,0.143
2,ATCACTTG,-0.145
3,GCGGGGGA,0.261
4,CCATCACC,0.0449
5,ATATAGGA,-0.0657
6,GCCTATCA,-0.0338
7,ATGTGATC,-0.0459
8,CGTATAAA,0.206
9,ATTTCTCA,-0.0486
10,TCAAATAA,0.00335
11,ATGGGTTC,-0.273
12,AGGGTATA,0.217
13,ACTGTAGA,-0.164
14,CAGGTCGC,-0.259
15,CGGGGTAC,0.188
16,CTCCTTTC,0.0201
17,CAGCGTAC,0.0758
18,AAGCTTTA,-0.324
19,ACACTTCC,-0.101
20,GACCCAAC,-0.0474
21,ACCGTGTC,0.294
22,CCAAGGCA,-0.00153
23,GGGTCGAC,0.157
24,CTCCGGCA,0.332
25,AATGTCGC,0.00121

row,Sequence,PBM E-score
1,CAAGATGC,-0.063
2,ATATGCTG,-0.0432
3,GCAATACA,0.0328
4,GCCCGTTA,0.228
5,CCCCCATA,-0.283
6,CAAGTATC,-0.136
7,GCTTCGTA,-0.294
8,CATCAGGC,-0.0697
9,ACATCGCA,-0.0203
10,ATAAAATC,0.131
11,AGTCACTA,-0.0227
12,ACGAGGTG,-0.119
13,TCACATAA,-0.0359
14,ACAATGTA,-0.112
15,ATCGTTAC,-0.205
16,GCCCGAGC,-0.0669
17,GAGAGTAA,-0.19
18,ATAGGTTG,-0.175
19,ACCACGCT,-0.133

# — the supplement of paper PMC3334620
